Results taken from paper PMC6276216.
No constants are given. Whether binding was seen depends on the method and setting. Binding seen in cells or lysates may run through a third protein. Some entries that bind do so weakly or less than the wild type. Sequences can lack the tags named with a protein.

Protein sequences, listed by entry. Tags and fused reporters are not part of them. Lines headed by an entry give the natural chain unless they say otherwise; changes in a name come on top. Chains listed by the source or under a name are the forms on record and can include a tag or linker.
HaloTag-ARNT isoform 6 (P27540, form named): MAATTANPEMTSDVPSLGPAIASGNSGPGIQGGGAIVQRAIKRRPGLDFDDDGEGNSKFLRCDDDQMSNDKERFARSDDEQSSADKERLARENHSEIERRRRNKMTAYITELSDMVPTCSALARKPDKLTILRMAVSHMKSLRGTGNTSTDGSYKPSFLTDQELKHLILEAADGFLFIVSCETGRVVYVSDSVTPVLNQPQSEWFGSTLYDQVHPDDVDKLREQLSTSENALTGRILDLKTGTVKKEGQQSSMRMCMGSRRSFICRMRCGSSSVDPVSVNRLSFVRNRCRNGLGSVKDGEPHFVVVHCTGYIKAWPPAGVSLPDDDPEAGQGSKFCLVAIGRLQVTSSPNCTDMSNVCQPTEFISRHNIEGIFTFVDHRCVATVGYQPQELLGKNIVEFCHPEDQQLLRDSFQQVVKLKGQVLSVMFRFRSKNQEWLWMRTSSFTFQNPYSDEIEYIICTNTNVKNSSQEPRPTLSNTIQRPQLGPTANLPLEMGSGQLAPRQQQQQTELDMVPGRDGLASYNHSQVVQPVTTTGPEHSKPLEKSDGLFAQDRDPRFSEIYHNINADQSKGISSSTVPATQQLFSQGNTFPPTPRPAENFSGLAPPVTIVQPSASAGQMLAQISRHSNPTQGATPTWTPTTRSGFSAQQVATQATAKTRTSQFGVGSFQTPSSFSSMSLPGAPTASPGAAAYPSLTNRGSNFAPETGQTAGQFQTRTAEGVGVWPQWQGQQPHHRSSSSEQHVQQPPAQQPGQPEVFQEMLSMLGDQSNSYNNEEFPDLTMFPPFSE

B1: HA-NPAS3 isoform 1 (933 aa) (protein, UniProt Q8IXF0-1 1-933)
chain: MAPTKPSFQQDPSRRERITAQHPLPNQSECRKIYRYDGIYCESTYQNLQALRKEKSRDAARSRRGKENFEFYELAKLLPLPAAITSQLDKASIIRLTISYLKMRDFANQGDPPWNLRMEGPPPNTSVKVIGAQRRRSPSALAIEVFEAHLGSHILQSLDGFVFALNQEGKFLYISETVSIYLGLSQVELTGSSVFDYVHPGDHVEMAEQLGMKLPPGRGLLSQGTAEDGASSASSSSQSETPEPVESTSPSLLTTDNTLERSFFIRMKSTLTKRGVHIKSSGYKVIHITGRLRLRVSLSHGRTVPSQIMGLVVVAHALPPPTINEVRIDCHMFVTRVNMDLNIIYCENRISDYMDLTPVDIVGKRCYHFIHAEDVEGIRHSHLDLLNKGQCVTKYYRWMQKNGGYIWIQSSATIAINAKNANEKNIIWVNYLLSNPEYKDTPMDIAQLPHLPEKTSESSETSDSESDSKDTSGITEDNENSKSDEKGNQSENSEDPEPDRKKSGNACDNDMNCNDDGHSSSNPDSRDSDDSFEHSDFENPKAGEDGFGALGAMQIKVERYVESESDLRLQNCESLTSDSAKDSDSAGEAGAQASSKHQKRKKRRKRQKGGSASRRRLSSASSPGGLDAGLVEPPRLLSSPNSASVLKIKTEISEPINFDNDSSIWNYPPNREISRNESPYSMTKPPSSEHFPSPQGGGGGGGGGGGLHVAIPDSVLTPPGADGAAARKTQFGASATAALAPVASDPLSPPLSASPRDKHPGNGGGGGGGGGGAGGGGPSASNSLLYTGDLEALQRLQAGNVVLPLVHRVTGTLAATSTAAQRVYTTGTIRYAPAEVTLAMQSNLLPNAHAVNFVDVNSPGFGLDPKTPMEMLYHHVHRLNMSGPFGGAVSAASLTQMPAGNVFTTAEGLFSTLPFPVYSNGIHAAQTLERKED
B2: HA-NPAS3 isoform 1 p.Val304Ile (protein, UniProt Q8IXF0-1 1-933)
chain: MAPTKPSFQQDPSRRERITAQHPLPNQSECRKIYRYDGIYCESTYQNLQALRKEKSRDAARSRRGKENFEFYELAKLLPLPAAITSQLDKASIIRLTISYLKMRDFANQGDPPWNLRMEGPPPNTSVKVIGAQRRRSPSALAIEVFEAHLGSHILQSLDGFVFALNQEGKFLYISETVSIYLGLSQVELTGSSVFDYVHPGDHVEMAEQLGMKLPPGRGLLSQGTAEDGASSASSSSQSETPEPVESTSPSLLTTDNTLERSFFIRMKSTLTKRGVHIKSSGYKVIHITGRLRLRVSLSHGRTIPSQIMGLVVVAHALPPPTINEVRIDCHMFVTRVNMDLNIIYCENRISDYMDLTPVDIVGKRCYHFIHAEDVEGIRHSHLDLLNKGQCVTKYYRWMQKNGGYIWIQSSATIAINAKNANEKNIIWVNYLLSNPEYKDTPMDIAQLPHLPEKTSESSETSDSESDSKDTSGITEDNENSKSDEKGNQSENSEDPEPDRKKSGNACDNDMNCNDDGHSSSNPDSRDSDDSFEHSDFENPKAGEDGFGALGAMQIKVERYVESESDLRLQNCESLTSDSAKDSDSAGEAGAQASSKHQKRKKRRKRQKGGSASRRRLSSASSPGGLDAGLVEPPRLLSSPNSASVLKIKTEISEPINFDNDSSIWNYPPNREISRNESPYSMTKPPSSEHFPSPQGGGGGGGGGGGLHVAIPDSVLTPPGADGAAARKTQFGASATAALAPVASDPLSPPLSASPRDKHPGNGGGGGGGGGGAGGGGPSASNSLLYTGDLEALQRLQAGNVVLPLVHRVTGTLAATSTAAQRVYTTGTIRYAPAEVTLAMQSNLLPNAHAVNFVDVNSPGFGLDPKTPMEMLYHHVHRLNMSGPFGGAVSAASLTQMPAGNVFTTAEGLFSTLPFPVYSNGIHAAQTLERKED
B3: HA-NPAS3 isoform 1 p.Ala552Pro (protein, UniProt Q8IXF0-1 1-933)
chain: MAPTKPSFQQDPSRRERITAQHPLPNQSECRKIYRYDGIYCESTYQNLQALRKEKSRDAARSRRGKENFEFYELAKLLPLPAAITSQLDKASIIRLTISYLKMRDFANQGDPPWNLRMEGPPPNTSVKVIGAQRRRSPSALAIEVFEAHLGSHILQSLDGFVFALNQEGKFLYISETVSIYLGLSQVELTGSSVFDYVHPGDHVEMAEQLGMKLPPGRGLLSQGTAEDGASSASSSSQSETPEPVESTSPSLLTTDNTLERSFFIRMKSTLTKRGVHIKSSGYKVIHITGRLRLRVSLSHGRTVPSQIMGLVVVAHALPPPTINEVRIDCHMFVTRVNMDLNIIYCENRISDYMDLTPVDIVGKRCYHFIHAEDVEGIRHSHLDLLNKGQCVTKYYRWMQKNGGYIWIQSSATIAINAKNANEKNIIWVNYLLSNPEYKDTPMDIAQLPHLPEKTSESSETSDSESDSKDTSGITEDNENSKSDEKGNQSENSEDPEPDRKKSGNACDNDMNCNDDGHSSSNPDSRDSDDSFEHSDFENPKAGEDGFGALGPMQIKVERYVESESDLRLQNCESLTSDSAKDSDSAGEAGAQASSKHQKRKKRRKRQKGGSASRRRLSSASSPGGLDAGLVEPPRLLSSPNSASVLKIKTEISEPINFDNDSSIWNYPPNREISRNESPYSMTKPPSSEHFPSPQGGGGGGGGGGGLHVAIPDSVLTPPGADGAAARKTQFGASATAALAPVASDPLSPPLSASPRDKHPGNGGGGGGGGGGAGGGGPSASNSLLYTGDLEALQRLQAGNVVLPLVHRVTGTLAATSTAAQRVYTTGTIRYAPAEVTLAMQSNLLPNAHAVNFVDVNSPGFGLDPKTPMEMLYHHVHRLNMSGPFGGAVSAASLTQMPAGNVFTTAEGLFSTLPFPVYSNGIHAAQTLERKED
B4: HA-NPAS3 PAS domains (residues 116–450) (domain or fragment, UniProt Q8IXF0-1 116-450)
chain: LRMEGPPPNTSVKVIGAQRRRSPSALAIEVFEAHLGSHILQSLDGFVFALNQEGKFLYISETVSIYLGLSQVELTGSSVFDYVHPGDHVEMAEQLGMKLPPGRGLLSQGTAEDGASSASSSSQSETPEPVESTSPSLLTTDNTLERSFFIRMKSTLTKRGVHIKSSGYKVIHITGRLRLRVSLSHGRTVPSQIMGLVVVAHALPPPTINEVRIDCHMFVTRVNMDLNIIYCENRISDYMDLTPVDIVGKRCYHFIHAEDVEGIRHSHLDLLNKGQCVTKYYRWMQKNGGYIWIQSSATIAINAKNANEKNIIWVNYLLSNPEYKDTPMDIAQLPH

target: HaloTag-ARNT isoform 6 (human) (UniProt P27540); assay: pull-down; HaloTag Mammalian Pull-Down (Promega): HaloTag-ARNT isoform 6 covalently linked to the resin, HA-tagged NPAS3 construct as prey; lysates of transfected HEK 293T cells; western blot of input, unbound and pull-down samples

Row | Binder | binding
1 | B1 | binds
2 | B2 | binds
3 | B3 | binds
4 | B4 | no binding
